PubChem BioAssay AID1468 (National Center for Advancing Translational Sciences (NCATS), 2008)
Among all 280,000 compounds or so, about 1,100 (0.39%) were called active. This list was built around the results that the source calls inconclusive (neither active nor inactive); the mix of calls is not that of the screen. The call rests on the fitted dose curve; in most records, active means well fitted inhibition curve with a large enough effect; inconclusive means small, poorly fitted or top-dose-only effect, or effect the other way; inactive means flat fitted curve, though single readings scatter. Potencies beside an inconclusive call are fits to weak or partial responses and may not hold up.

biological target: Microtubule-associated protein tau (Homo sapiens) (UniProt P10636); assay: qHTS for Inhibitors of Tau Fibril Formation, Fluorescence Polarization; details: K18 P301L tau heparin fibrillization, Alexa594 FP, 6 h; series mostly up to 57.7 µM; further: nearly all actives have a fitted effect of over 55% in size
UniProt P10636, sequence (P10636 whole entry, looked up): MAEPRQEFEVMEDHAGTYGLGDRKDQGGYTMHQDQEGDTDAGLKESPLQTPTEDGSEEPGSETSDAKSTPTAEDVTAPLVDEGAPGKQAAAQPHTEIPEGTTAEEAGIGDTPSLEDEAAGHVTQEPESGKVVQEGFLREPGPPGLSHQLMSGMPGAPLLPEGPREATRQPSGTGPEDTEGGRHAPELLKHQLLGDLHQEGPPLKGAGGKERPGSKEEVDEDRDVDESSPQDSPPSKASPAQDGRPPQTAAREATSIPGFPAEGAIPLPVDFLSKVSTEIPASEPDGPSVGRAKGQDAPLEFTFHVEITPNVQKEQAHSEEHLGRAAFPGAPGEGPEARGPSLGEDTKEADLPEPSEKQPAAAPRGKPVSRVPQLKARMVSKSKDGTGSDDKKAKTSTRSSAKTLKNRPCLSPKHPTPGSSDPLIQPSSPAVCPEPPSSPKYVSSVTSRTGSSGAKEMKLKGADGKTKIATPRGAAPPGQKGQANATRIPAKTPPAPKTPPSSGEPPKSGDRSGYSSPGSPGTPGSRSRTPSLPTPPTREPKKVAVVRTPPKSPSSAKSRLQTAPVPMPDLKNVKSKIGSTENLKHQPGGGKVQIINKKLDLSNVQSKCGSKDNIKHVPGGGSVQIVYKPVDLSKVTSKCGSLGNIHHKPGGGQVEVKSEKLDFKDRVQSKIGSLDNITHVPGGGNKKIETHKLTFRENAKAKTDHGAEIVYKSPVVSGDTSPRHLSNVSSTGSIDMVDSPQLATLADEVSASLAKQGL
Summary of the method: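 FP of Alexa 594-tau after heparin (20 uM) induction. Substrate: human K18 P301L, 15 uM unlabeled, 0.24 uM labeled. Buffer 100 mM sodium acetate pH 7. 6 hr, 37 C.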
On the % scale 0 is the no-effect control and ±100 the full control effect; potency means the concentration at half of the fitted maximal effect; tags describe the fitted curve by direction and shape.

Potency, inactive:
C/C(CC(=O)Nc1cccc(Cl)c1Cl)=N\NC(=O)c1ccccc1C, Cc1cc(C(=O)CN2C(=O)C(=O)N(Cc3ccccc3)C2=O)c(C)n1-c1ccccc1F, COc1cc2c(cc1OC)n(Cc1cccc(C(F)(F)F)c1)c(=O)n1nc(-c3ccccc3)nc21, N#Cc1ccccc1NC(=O)CNc1ccc(Cl)c(C(F)(F)F)c1, O=C(CSCn1nnc2c(=O)[nH]c(Cc3ccc(F)cc3)nc21)Nc1cccc(C(F)(F)F)c1, N#C/C(=C(/O)C(Cl)(Cl)Cl)c1nc2ccccc2[nH]1, CCC(C)NCCOc1ccc(C)cc1[N+](=O)[O-] (configuration not stated), CCCCn1c(=O)c2c(c3ccccc31)OCC(=O)N2, CCSc1nc2c([nH]c3ccccc32)c(=O)n1CC, C=C(C(=O)c1ccccc1)C(c1ccccc1)C(C)C(=O)c1ccccc1 (configuration not stated), Cc1cccc(CSc2ncc(Cl)c(C(=O)Nc3sc4c(c3C(N)=O)CCCC4)n2)c1, Cc1cccc(CNC(=O)CCn2c(=O)c3cccn3c3ccc(F)cc32)c1, O=C(COc1ccc(F)cc1)OCc1cc(=O)n2nc(C3CCCCC3)sc2n1, CCCCC(=O)Nc1cc(OC)c(NC(=O)C2CCCCC2)cc1OC, COCCN(C(=S)Nc1c(C)cc(C)cc1C)C(C)c1cccnc1 (configuration not stated), CCCc1cc(=O)n2[nH]c(NC(=O)c3ccc(C(C)(C)C)cc3)nc2n1, Cc1ccc(CNC(=O)COCc2cc(-c3cccs3)on2)cc1, CCC(OC(=O)CN1C(=O)C(=O)c2ccccc21)C(=O)Nc1ccc(S(N)(=O)=O)cc1 (configuration not stated), COc1ccc(CC(=O)N2N=C(C)CC2(O)c2cccnc2)cc1 (configuration not stated), CCn1c(-c2cc(Br)cc(OC)c2O)nc2cc(S(=O)(=O)N(C)C)ccc21, O=c1c(Oc2ccccc2F)coc2cc(OCc3cnn(-c4ccccc4)c3)ccc12, Cc1cccc(N2CCN(S(=O)(=O)c3ccc(-c4cnc(C5CC5)o4)cc3)CC2)c1C

Potency, inconclusive:
COc1ccccc1NC(=O)Cn1c(=O)n(Cc2ccccc2)c(=O)c2c1c1cc(C)ccc1n2C 7.94 µM [activator, single point], Cc1cc(C)c2c(=O)n(CC(=O)NCCCN3CCN(c4ccccc4F)CC3)sc2n1 15.8 µM [inhibitor, partial curve], CC(C)n1nnnc1SCC(=O)Nc1ccc2c(c1)OCCO2 7.08 µM [inhibitor, full curve], O=C(Nc1ccc(Cl)c(Cl)c1)N1CCSC1c1ccco1 (configuration not stated) 39.8 µM [inhibitor, single point], COc1ccc(CCC(=O)Nc2ccc(-c3noc(-c4ccc(OC)c(OC)c4)n3)cc2)cc1 17.8 µM [inhibitor, partial curve], COc1ccc(-c2cn(-c3ccc(C)cc3)c(S(=O)(=O)CC(=O)Nc3ccc(F)cc3)n2)cc1 10 µM [inhibitor, partial curve], O=C(Oc1cccc(N2C(=O)CCC2=O)c1)C1CC(=O)N(c2ccc(Br)cc2)C1 (configuration not stated) 14.1 µM [activator, single point], COc1cc(Nc2nc(SCC(=O)c3ccc(Br)cc3)nc3ccccc23)cc(OC)c1 0.501 µM [inhibitor, full curve, poor fit], Cc1ccc(OCCn2cc(/C=C3\C(=O)NN(c4ccccc4)C3=O)c3ccccc32)cc1 5.01 µM [activator, full curve], O=C(NCc1ccccc1Cl)c1cc2c(s1)-c1ccc(Cl)cc1SC2 20 µM [inhibitor, partial curve, poor fit], Cc1cccc(NC(=S)N/N=C2\CC(C)(C)Oc3ccc(O)cc32)c1 10 µM [activator, partial curve], O=C(Cn1c(=O)nc(-c2ccccc2)c2ccccc21)Nc1cccc(C(F)(F)F)c1 44.7 µM [inhibitor, single point], CN(C)CCNC(=O)Cc1c(C(=O)O)n(C)c2ccccc12 2.24 µM [inhibitor, partial curve, poor fit], CN(C)C1=NCC(CSC(=N)N)S1 (configuration not stated) 20 µM [inhibitor, single point], CCN=C1SC(CC(=O)Nc2sc(C)c(C)c2C(=O)OC)C(=O)N1CC (configuration not stated) 5.62 µM [inhibitor, single point], CCOC(=O)c1c(-c2ccccc2)oc2ccc(NS(=O)(=O)c3cc(C)c(C)cc3C)cc12 0.0794 µM [inhibitor, full curve], CC(=O)c1cccc(NC(=O)c2oc3c(c2C)-c2nn(Cc4ccc(Cl)cc4)cc2CC3)c1 25.1 µM [inhibitor, single point], CC(C)(C)OC(=O)CNC(=O)c1[nH]cnc1C(=O)Nc1ccc(CNC(=O)OC(C)(C)C)cc1 17.8 µM [inhibitor, partial curve], CC1CCCc2sc3nc(SCC(=O)c4ccc(Br)cc4)nc(N)c3c21 (configuration not stated) 28.2 µM [inhibitor, single point], CC(=C\C(=O)O)/C(=C/c1ccco1)C(=O)O 22.4 µM [inhibitor, partial curve], N#CC1=C(N)Oc2n[nH]c(-c3cccnc3)c2C1c1ccc([N+](=O)[O-])o1 (configuration not stated) 10 µM [inhibitor, partial curve], Cc1ccc(C)c(N2CCN(C(=O)C34CC5CC(C3)CC(n3nnc(C)n3)(C5)C4)CC2)c1 39.8 µM [inhibitor, single point], CCC(=O)Nc1ccc(SC#N)cc1C 8.91 µM [inhibitor, partial curve], Cc1cccc(N2CCN(C(=O)Cn3nc(C)n4cccc4c3=O)CC2C)c1 (configuration not stated) 2.82 µM [inhibitor, full curve], CN(Cc1ccccc1)S(=O)(=O)c1nnc(NC(=O)c2cccc(Cl)c2)s1 17.8 µM [inhibitor, partial curve], Cc1ccccc1NCc1ccccc1O 31.6 µM [inhibitor, single point], COc1ccc(NC(=O)CCSc2nc(-c3ccc(OC)cc3)cc(C(F)(F)F)n2)cc1 12.6 µM [inhibitor, partial curve], CN1C(=CC=C2C=C(I)C(=O)C(I)=C2)C(C)(C)c2ccccc21 7.08 µM [activator, single point], CC(C)CCNC(=O)c1ccc2c(c1)NC(=O)C(CS(=O)(=O)Cc1ccc(F)cc1)N2 (configuration not stated) 17.8 µM [inhibitor, partial curve], COC(=O)c1ccccc1NC(=O)N1CCN(c2ccc(F)cc2)CC1 12.6 µM [activator, partial curve, poor fit], O=C(c1cccs1)c1cn(CCOc2ccccc2F)c2ccccc12 7.94 µM [inhibitor, full curve], O=C(Nc1cccc(S(=O)(=O)N2CCCCC2)c1)c1ccc2ccccc2n1 8.91 µM [inhibitor, partial curve, poor fit], O=C(CSc1ncc2c(n1)-c1ccc(Cl)cc1N(Cc1ccccc1)S2(=O)=O)Nc1ccc(F)c(F)c1 10 µM [inhibitor, partial curve], COc1ccc(CNC(=O)Nc2ccc3c(c2)N(C)C(=O)c2ccccc2S3)cc1 7.94 µM [activator, full curve, poor fit], CCOc1ccc(C2C(C(N)=O)=C(C)Nc3nc(SCc4ccccc4)nn32)cc1 (configuration not stated) 1.26 µM [inhibitor, partial curve, poor fit], O=C(NCc1ccc2c(c1)CCN2C(=O)c1ccccc1)c1cc2ccccc2[nH]1 0.355 µM [inhibitor, full curve, poor fit], Cc1c(Cl)cccc1Nc1nn2c(=O)c3ccccc3nc2s1 10 µM [inhibitor, partial curve, poor fit], COC(=O)c1cc(NC(=O)c2cc3c(-c4ccccc4F)nn(C)c3s2)cc(C(=O)OC)c1 15.8 µM [inhibitor, partial curve], COC(=O)Cn1c(SCc2ccccc2)nc2ccccc21 28.2 µM [inhibitor, single point], Cc1ccc(NC(=O)c2cc(C(=O)c3cc(Cl)ccc3O)cn(-c3ccc(C)cc3)c2=O)cc1 44.7 µM [inhibitor, single point], O=C(CSc1nc(NS(=O)(=O)c2ccccc2)cc(=O)[nH]1)Nc1ccc(F)cc1 39.8 µM [inhibitor, single point], CCOC(=O)c1c(-c2cccc([N+](=O)[O-])c2)csc1NC(=O)C1CCCCC1 0.708 µM [inhibitor, single point], Cc1ccc(N2C(=O)CC(C3CCCO3)C2=O)cc1 (configuration not stated) 0.251 µM [activator, full curve, poor fit], Cc1ccc(NC(=O)O/N=C2\CCCCC2c2ccc([N+](=O)[O-])cc2[N+](=O)[O-])cc1 (configuration not stated) 20 µM [activator, partial curve, poor fit]

activity, negative = inhibition, inactive:
COCC#Cc1ccc(C2C(C)CCC3C(=O)N4C(CCC(C)C4c4ccc(C#CCOC)cc4)C(=O)N32)cc1 (configuration not stated) 1.81% [at 11.6 µM]
